Some of the results follow. At the low end of the ranking the order means little. The protein was read in a cell extract, so binding may be indirect.

This assay addresses T1, HNF4alpha2 (COS-7 nuclear extract) (UniProt P41235).
T1 sequence: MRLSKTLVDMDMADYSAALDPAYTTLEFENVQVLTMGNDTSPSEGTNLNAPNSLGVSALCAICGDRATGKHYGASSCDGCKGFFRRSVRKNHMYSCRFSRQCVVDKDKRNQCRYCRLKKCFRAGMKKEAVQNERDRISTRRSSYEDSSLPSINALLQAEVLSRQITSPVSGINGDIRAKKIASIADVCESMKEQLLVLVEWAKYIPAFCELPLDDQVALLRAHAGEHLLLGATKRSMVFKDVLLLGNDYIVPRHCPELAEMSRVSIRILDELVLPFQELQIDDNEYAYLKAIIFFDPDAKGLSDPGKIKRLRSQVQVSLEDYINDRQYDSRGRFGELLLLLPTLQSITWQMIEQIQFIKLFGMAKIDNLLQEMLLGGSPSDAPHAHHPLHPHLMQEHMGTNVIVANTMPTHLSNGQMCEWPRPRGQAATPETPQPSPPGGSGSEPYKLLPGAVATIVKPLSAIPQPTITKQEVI
In words: protein-binding microarray. Conditions: COS-7 nuclear extract on double-stranded Agilent 4x180k PBM; binding buffer, salt, pH and temperature not given; high values mean tight binding; double strand, one strand shown; sequences stand for … in …GCCTAGGGAGATTAGAGTATCGGTCGA
Turning to ATTTCACAAAGGGCAAAGTCCCCTTTCCTC, the binding signal (log2 normalized intensity) came out at 5.42.

As for AAACAGGGAGCAGGCAGATTTGACCTACGG, the binding signal (log2 normalized intensity) came out at 1.57.

Turning to GACACACCTAGGGAGTTAATCACAGGATTT, the binding signal (log2 normalized intensity) is -1.25.

On to GGGAACAAAACTTCACCTCCCCTAGACTTA, for which the binding signal (log2 normalized intensity) is 1.71.

Turning to CCTTATGTAACTGTAACTATATTGACCACC, the binding signal (log2 normalized intensity) is 1.57.

On to TGGAGTTTGCCCTTCACAAATTAGACAAGG, for which the binding signal (log2 normalized intensity) turned out to be 1.57.

Consider ACAGATTAAGTCACGTGGAGATAACACACA, for which the binding signal (log2 normalized intensity) is -1.1.

Take ACACAATATTATGTTTTGTTATCTGTGCCA: the binding signal (log2 normalized intensity) was 1.17.

Turning to GTTCCAAAGTCCACCGTGGTGTAGAGGCCC, the binding signal (log2 normalized intensity) came out at 3.48.

For GAGGGGATTGATGGAATTCCACTGACTGCT, the binding signal (log2 normalized intensity) is -1.06.

ACCCCCAACTTCCCCAACCCTTGCACTGCT: the binding signal (log2 normalized intensity) worked out at 3.93.

As for AAAGGTCTGAGAACCAAGAGAGCCATTGGT, the binding signal (log2 normalized intensity) was -0.915.

Take AGATTTGAATATGTACATGGACTTTGAACC: the binding signal (log2 normalized intensity) was found to be 10.3.

For the sequence CGGGTTCTGCGCAGGGAGGAGCGCATCGGG, the binding signal (log2 normalized intensity) is -1.18.

On to CTCTCCCAGTGGAATGCAAATATAGAAATA, for which the binding signal (log2 normalized intensity) worked out at 0.784.

For the sequence CAGTACTGAAACATGCCTATGACCGAGGGT, the binding signal (log2 normalized intensity) is 0.809.

GTTAAAGTCCGTTACAGACAGGCAGCCCCT: the binding signal (log2 normalized intensity) was -1.02.

AAGGCCACAGCTCAGATCACAAAAGATGGA: the binding signal (log2 normalized intensity) is -1.13.

As to CCCCAAAGGCTCTCTGTTGACCACCTGCCC, the binding signal (log2 normalized intensity) stood at 2.01.

GGAGTCAAGCAAACACACTTGCTCTAATCC: the binding signal (log2 normalized intensity) is -1.07.

Turning to CTCCGCTAAGTGGCTCGACAACGATTTGGG, the binding signal (log2 normalized intensity) was -1.06.

On to GTAAATTCTTGAGCAGTCACTGGGAGATAT, for which the binding signal (log2 normalized intensity) was -0.32.

In the case of ATGACAAAGGTGAGAGAGCATCCAGATAAA, the binding signal (log2 normalized intensity) was -0.979.

Turning to CAGAGCACAGCAGGGCAGGGTATGCCTGAC, the binding signal (log2 normalized intensity) was -0.935.

ATGACTCCAAAGTTCAAACTCTGAAAGCAC: the binding signal (log2 normalized intensity) amounted to 2.34.

As to GACACTGCTCTCTCCAGGGGAGGGTGACCA, the binding signal (log2 normalized intensity) was determined as 0.276.

GTCTGACAGATAAGATTTGGAAAATATTGC: the binding signal (log2 normalized intensity) was -1.04.

For the sequence TAACACCAGATAAACAGAAGAAAGGGGCTA, the binding signal (log2 normalized intensity) was -1.12.

Take GAAGCCACAGAAGTCTTTCCCTGCCAGTTC: the binding signal (log2 normalized intensity) was -1.16.

As for GCCCAGTCAAACCCCGCGCTCCAGGCATGG, the binding signal (log2 normalized intensity) was -0.783.

Take ATGTGTTAGGCAAGCAAACTGCAAATACAG: the binding signal (log2 normalized intensity) was -0.697.

As for GAGTCTGTTGTCTAACATTTTTGACCTTCA, the binding signal (log2 normalized intensity) was 4.09.

Take GCCCCATAACCACCATTAGACTCTGCCCTC: the binding signal (log2 normalized intensity) is 4.41.

On to GCCGGCGCAGCCGCGCTCCGCCCCGTTCCC, for which the binding signal (log2 normalized intensity) is 2.19.

Regarding CTCTTACAACGAGGTGCCAGAAACCTGACT, the binding signal (log2 normalized intensity) was -1.02.

Take TATCATACTCAGCTAATCTAGAGACACTAT: the binding signal (log2 normalized intensity) was -1.25.

For CTGTGGATAGCTCAGGGATTAACGACTCAT, the binding signal (log2 normalized intensity) was -0.792.

In the case of TGTTTGCCTCTCAGCTCATTCAAAGTCCAA, the binding signal (log2 normalized intensity) was determined as 3.44.

Consider AGGTTTCCACTGATAAAGTTCTTTTGTGTG, for which the binding signal (log2 normalized intensity) is 1.63.

As for GGCAGAGTTGTTTGCAGAGGGAAAGCGAGA, the binding signal (log2 normalized intensity) is -1.12.

In the case of TCATGACAAAGAAATGTAACCTTTGGCCAA, the binding signal (log2 normalized intensity) came out at 6.62.

As to CCTGACTCAAGAAAGGATCTCACCCAAACC, the binding signal (log2 normalized intensity) was -1.31.

As for GGAACTGTCCACCAAGGAGGTGCTGACAGG, the binding signal (log2 normalized intensity) is -1.07.

In the case of TTCCTGGCAGCCAGCTGGTTTGCCTCTCTT, the binding signal (log2 normalized intensity) is -1.17.

Take CTGGCCTTCCTGGCCCTAGCTGGGTTTTTC: the binding signal (log2 normalized intensity) was -1.11.

Regarding TGAGATTTTGCTCAACAAATATTAGCTGTT, the binding signal (log2 normalized intensity) is -0.795.

In the case of TGTCCATGGTGACCATGTGATGTGAAGAGT, the binding signal (log2 normalized intensity) came out at 0.264.

In the case of CCTCCCCCCTTCTGTTTCCAGAAATCTGAC, the binding signal (log2 normalized intensity) came out at 2.6.

As for ATGTTCCTTATCAGAGAGGCCTCACAGCCT, the binding signal (log2 normalized intensity) is -1.15.

As for TCATAAAGAACAGTTATTCTTAGCTTTCCT, the binding signal (log2 normalized intensity) is -0.862.

In the case of CTCCACCTACGCTACGCACCAGGCATACTC, the binding signal (log2 normalized intensity) was -1.26.

Take ACATTCCAGGACCTTTGCTCATGTCCTCTT: the binding signal (log2 normalized intensity) is 2.5.

Consider AGATAACAAACTTGATTGGGTATCAAGGGT, for which the binding signal (log2 normalized intensity) is -0.836.

Regarding TCCCATCCCCAGAGCCCCCTTGATGCATCA, the binding signal (log2 normalized intensity) was 4.64.

With CTGCAAAGAAGTCAAACTTTGGACCCACTG, the binding signal (log2 normalized intensity) came to 5.97.

On to TCGAGCAAGGTTCAGCACATTTATGAGGCC, for which the binding signal (log2 normalized intensity) was 0.497.

Regarding GGGGACCTTTGGCCTTTACCTGTTACTTAT, the binding signal (log2 normalized intensity) was determined as 3.57.

Turning to TGTCACCCAGCCAGAATTCTCCCTGCAGTC, the binding signal (log2 normalized intensity) was -1.12.

As for CTCAAGCTTCAGGAGTCCACTGTGTTCTTG, the binding signal (log2 normalized intensity) came to 1.67.

For GCGCCAGGCTGGGGGCAGAGTTCACCCCAT, the binding signal (log2 normalized intensity) turned out to be 3.34.

Regarding TGAAATTTGGCCTGCTGAGCCCAATCTAGC, the binding signal (log2 normalized intensity) was -1.2.

For AGATAGTGACGGAGGTGACCTTTGGTTGTC, the binding signal (log2 normalized intensity) was found to be 5.52.

For the sequence GCGCGGGCAGGTTGCCCTTTCGGTGGGACT, the binding signal (log2 normalized intensity) stood at 2.7.

Regarding GCAAGTCGAGCAAGGTTCAGCACATTTATG, the binding signal (log2 normalized intensity) is 0.771.

As for TGAGACGCAAGCATATCTCTAGATCTCAGT, the binding signal (log2 normalized intensity) is -1.05.

On to CTGGTGTGAGGTCAGTTGATAAACAGATAA, for which the binding signal (log2 normalized intensity) came out at 1.45.

Turning to TGGTGTAAGCACTTGTGGTATGTTTGGATT, the binding signal (log2 normalized intensity) is 2.41.

On to GTGGGTGCCAAACAAAAAGGGCAAAGGTCA, for which the binding signal (log2 normalized intensity) turned out to be 8.12.

In the case of AAAGTTTCACTTTCTCTTATAGCTCAACCC, the binding signal (log2 normalized intensity) came to 0.711.

For GGCCTGCATGACTACATTCTTTGAAGACTA, the binding signal (log2 normalized intensity) is -0.971.

On to AGGTGCTGCCTTGGAGGTGAGGGTTACAGG, for which the binding signal (log2 normalized intensity) amounted to 0.356.

As for AGCACGGCCAGGATTAACCACAGAAATGCC, the binding signal (log2 normalized intensity) was -1.09.

For the origin of these results see PMC10726135.
